# Measured values as given in publication PMC4336329 (PLoS ONE, 2015).
# The campaign covered roughly 310,000 compounds. About 14,000 (4.5%) showed an effect of 50% or more. The effect is printed as a negative number. The list shows a part of the results.
# Biological target: human ether-à-go-go-related gene (hERG) potassium channel (human, UniProt Q12809)
# Test: primary screen, population patch clamp on CHO cells stably expressing hERG
# 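Note: peak tail current of the secondary pulse compared with the same well before compound.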
# human ether-à-go-go-related gene (hERG) potassium channel, sequence (Q12809 whole entry, looked up): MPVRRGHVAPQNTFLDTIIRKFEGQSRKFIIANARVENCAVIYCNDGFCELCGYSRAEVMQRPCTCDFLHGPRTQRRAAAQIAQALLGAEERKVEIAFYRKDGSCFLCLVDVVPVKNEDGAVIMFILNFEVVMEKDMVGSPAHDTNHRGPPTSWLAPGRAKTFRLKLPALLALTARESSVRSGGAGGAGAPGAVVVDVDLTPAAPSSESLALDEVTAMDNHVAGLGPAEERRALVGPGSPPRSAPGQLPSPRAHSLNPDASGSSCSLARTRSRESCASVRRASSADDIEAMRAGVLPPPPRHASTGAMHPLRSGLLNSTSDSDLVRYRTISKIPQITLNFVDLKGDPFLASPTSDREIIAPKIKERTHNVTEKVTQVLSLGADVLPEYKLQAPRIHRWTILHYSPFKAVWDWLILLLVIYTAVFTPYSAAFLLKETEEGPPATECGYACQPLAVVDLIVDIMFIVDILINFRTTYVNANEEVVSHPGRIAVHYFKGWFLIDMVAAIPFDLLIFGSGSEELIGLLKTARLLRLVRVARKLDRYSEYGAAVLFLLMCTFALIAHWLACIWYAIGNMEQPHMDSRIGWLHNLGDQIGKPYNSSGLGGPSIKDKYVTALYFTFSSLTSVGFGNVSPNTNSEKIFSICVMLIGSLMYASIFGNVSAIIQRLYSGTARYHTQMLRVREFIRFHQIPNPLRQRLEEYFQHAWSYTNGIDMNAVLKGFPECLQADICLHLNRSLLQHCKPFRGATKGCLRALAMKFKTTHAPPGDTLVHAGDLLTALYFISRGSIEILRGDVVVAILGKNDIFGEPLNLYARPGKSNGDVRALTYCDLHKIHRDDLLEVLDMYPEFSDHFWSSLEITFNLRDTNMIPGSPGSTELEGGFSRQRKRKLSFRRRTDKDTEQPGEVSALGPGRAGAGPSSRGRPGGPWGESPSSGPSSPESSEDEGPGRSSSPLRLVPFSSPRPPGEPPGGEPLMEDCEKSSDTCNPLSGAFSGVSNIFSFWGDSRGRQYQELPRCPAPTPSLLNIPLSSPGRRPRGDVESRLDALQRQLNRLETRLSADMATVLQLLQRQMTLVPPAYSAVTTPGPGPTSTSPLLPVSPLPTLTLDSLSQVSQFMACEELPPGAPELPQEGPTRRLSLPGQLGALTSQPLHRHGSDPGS
row,Compound,"hERG current change (%, negative = inhibition) at 10uM [%]"
1,CCCCCCOc1ccc(/C(C)=N/NC2=NCCN2)cc1,-19.9
2,CCN(CC)C(=O)c1cc2cc([N+](=O)[O-])ccc2s1,-55.5
3,CCOc1ccc(C(C)=O)cc1COc1ccc(-c2nnco2)cc1,17.2
4,COc1ccc2c(c1OC)C(=O)N1c3ccccc3N=C(c3ccc([N+](=O)[O-])cc3)CC21 (stereo not shown),-38.7
5,O=C(Nc1cc(-c2ccccc2)sc1C(=O)O)c1cccc(F)c1,33.5
6,CCCCSc1cc(C)nc(N)n1,-1.73
7,Cc1cccc(C(=O)N/C(=C\c2ccc(C)o2)C(=O)O)c1,14.2
8,CSc1cccc(NC(=O)NNC(=O)C2CCN(S(=O)(=O)N(C)C)CC2)c1,22.5
9,O=C(NCCn1cc(SCc2ccccc2)c2ccccc21)c1c(F)cccc1F,0.607
10,Cc1ccccc1NC(=O)CSc1n[nH]c(-c2ccccn2)n1,-21.6
11,COc1ccc(S(=O)(=O)N2CCCCC2)cc1NC(=O)CNc1ccccc1C(C)=O,-15.2
12,Cn1c(COc2ccc(F)cc2)nnc1SCC(=O)NC1CC1,-15.1
13,Nc1nc(SCC(=O)NCc2ccccc2)[nH]c(=O)c1NC(=O)c1ccccc1F,22.4
14,COc1ccc(CCNC(=O)CCCOc2ccc(C)cc2)cc1OC,-4.77
15,O=C(CCN1C(=O)c2ccccc2S1(=O)=O)Nc1ccccc1,-1.82
16,Cc1ccc(C)c(S(=O)(=O)N2CCN(CC(=O)Nc3sccc3C#N)CC2)c1,-57.7
17,Cc1nnc2ccc(-c3cccc(NC(=O)c4ccc(Cl)nc4)c3)nn12,-56.7
18,Cc1cc(Cl)c2ccc3ccccc3c2n1,11.6
19,C=CCNC(=O)NC(=O)Cn1c(=O)c2c(ncn2CC)n(Cc2ccccc2)c1=O,-1.06
20,CC(C)(C)n1nnnc1C(c1cccs1)N(Cc1ccccc1)Cc1cccnc1 (stereo not shown),-15.6

row,Compound,"hERG current change (%, negative = inhibition) at 10uM [%]"
1,O=C(CN1C(=O)COc2ccccc21)NC1CCCC1,17.2
2,Cc1ccc(CC(=O)Nc2cccc(C)n2)cc1,1.71
3,Cn1c(CNc2cccc(C(F)(F)F)c2)n[nH]c1=S,15.7
4,C/C=C/C=C(/NC(=O)c1ccccc1)C(=O)Nc1ccccc1,10.5
5,COc1ccc(OCc2nc(N)nc(Nc3cccc(C)c3C)n2)cc1,18.6
6,O=C(NCCN1CCN(Cc2ccc([N+](=O)[O-])cc2)CC1)C(=O)Nc1ccccc1,-64.3
7,CCOC(=O)CSC1=C(C#N)C(=O)NC(c2ccc(OC)c(OC)c2)S1 (stereo not shown),20.9
8,CCCCn1c2nc3ccccc3nc2c2c(=O)n(-c3ccccc3)cnc21,-9.59
9,COC(=O)c1n[nH]n(-c2ccc(F)c(Cl)c2)c1=O,9.84
10,Cc1onc(-c2ccccc2)c1C(=O)Nc1cccc(C#N)c1,-10.8
11,COc1ccc(CCNC(=O)COc2coc(CN3c4ccccc4CC3C)cc2=O)cc1OC (stereo not shown),3.46
12,COc1ccc(NC(=O)CCCC(=O)c2ccccc2)c(OC)c1,3.93
13,Cc1ccc(N2CC(C(=O)OCC(=O)c3ccc(F)cc3)CC2=O)cc1 (stereo not shown),10.1
14,O=C(Nc1ccc(N2CCCCC2)cc1)C(Cl)c1ccccc1 (stereo not shown),7.17
15,CCn1cc(Br)c(C(=O)NN)n1,19.3
16,Cc1ccc(S(=O)(=O)N2C(=O)c3cccc4cccc2c34)cc1,19.4
17,CC(Oc1cccc2cccnc12)C(=O)N/N=C/c1ccccc1 (stereo not shown),3.83
18,Cn1c(SCC(=O)c2cc(Cl)c(Cl)s2)nnc1-c1ccco1,-60.5
19,CC(=O)N1CC=CC1(CC(C)C)C(=O)NCCc1c[nH]c2ccccc12 (stereo not shown),4.11
20,C[C@]12CC[C@H](OS(=O)(=O)[O-])CC1=CC[C@@H]1[C@@H]2CC[C@]2(C)C(=O)CC[C@@H]12.O.[Na+],36.3

row,Compound,"hERG current change (%, negative = inhibition) at 10uM [%]"
1,CN(CCCC1CCCC1)C(=O)CCc1nnc(-c2ccccc2)o1,-22.7
2,CN(C(=O)c1ccncc1)C1CCS(=O)(=O)C1 (stereo not shown),-2.9
3,COc1ccc(/C=N/n2cc(-c3ccc(OC)cc3)nc2N)cc1,-3.96
4,O=C(c1ccc(NC(=S)NCc2ccc(Cl)cc2)cc1)N1CCCCC1,1.04
5,Cn1nc(Oc2ncc(C(F)(F)F)cc2Cl)cc1C(F)(F)F,15.4
6,Cc1nc([N+](=O)[O-])c(SCC(N)=O)n1Cc1ccccc1,27.8
7,COc1ccc(-c2c(C)oc3cc(O)cc(O)c3c2=O)cc1OC,-7.42
8,COC(=O)c1nnn(-c2nonc2N)c1CSc1nnc(N)s1,-46.8
9,Cc1ccc(NS(=O)(=O)c2ccc(-c3cnc(C4CC4)o3)cc2)c(C)c1,2.08
10,CC(C)CNC(=S)NNC(=O)c1csc2c1CCCC2,7.34
11,COc1ccccc1NS(=O)(=O)c1cccc(C(=O)N/N=C2\CC(=O)CC(C)(C)C2)c1,-3.44
12,Cc1ccc(S(=O)(=O)N2CC3CC(C2)c2cccc(=O)n2C3)cc1 (stereo not shown),-22
13,CN(C)S(=O)(=O)c1cccc(COC(=O)c2ccc(Cl)cc2O)c1,-7.36
14,C=C(C)CC1Nc2ccccc2NC1CC(=C)C (stereo not shown),-1.86
15,Cc1nc2ccc(NC(=O)c3ccc(Cl)nc3)cc2s1,-13.3
16,CCCn1nc(CC(=O)O)c2ccccc2c1=O,6.35
17,Cc1ccccc1CSc1nnc(-c2cccs2)n1Cc1ccco1,-41.7
18,O=C1N(c2ccccc2C(F)(F)F)O[C@]1(c1ccccc1)C1CCCCC1,-5.05
